# Article PMC5720820
# Chains of the proteins cited; added tags and fusions are not shown. Residues count along the entry.
# UniProt P97772, residues 21-1199: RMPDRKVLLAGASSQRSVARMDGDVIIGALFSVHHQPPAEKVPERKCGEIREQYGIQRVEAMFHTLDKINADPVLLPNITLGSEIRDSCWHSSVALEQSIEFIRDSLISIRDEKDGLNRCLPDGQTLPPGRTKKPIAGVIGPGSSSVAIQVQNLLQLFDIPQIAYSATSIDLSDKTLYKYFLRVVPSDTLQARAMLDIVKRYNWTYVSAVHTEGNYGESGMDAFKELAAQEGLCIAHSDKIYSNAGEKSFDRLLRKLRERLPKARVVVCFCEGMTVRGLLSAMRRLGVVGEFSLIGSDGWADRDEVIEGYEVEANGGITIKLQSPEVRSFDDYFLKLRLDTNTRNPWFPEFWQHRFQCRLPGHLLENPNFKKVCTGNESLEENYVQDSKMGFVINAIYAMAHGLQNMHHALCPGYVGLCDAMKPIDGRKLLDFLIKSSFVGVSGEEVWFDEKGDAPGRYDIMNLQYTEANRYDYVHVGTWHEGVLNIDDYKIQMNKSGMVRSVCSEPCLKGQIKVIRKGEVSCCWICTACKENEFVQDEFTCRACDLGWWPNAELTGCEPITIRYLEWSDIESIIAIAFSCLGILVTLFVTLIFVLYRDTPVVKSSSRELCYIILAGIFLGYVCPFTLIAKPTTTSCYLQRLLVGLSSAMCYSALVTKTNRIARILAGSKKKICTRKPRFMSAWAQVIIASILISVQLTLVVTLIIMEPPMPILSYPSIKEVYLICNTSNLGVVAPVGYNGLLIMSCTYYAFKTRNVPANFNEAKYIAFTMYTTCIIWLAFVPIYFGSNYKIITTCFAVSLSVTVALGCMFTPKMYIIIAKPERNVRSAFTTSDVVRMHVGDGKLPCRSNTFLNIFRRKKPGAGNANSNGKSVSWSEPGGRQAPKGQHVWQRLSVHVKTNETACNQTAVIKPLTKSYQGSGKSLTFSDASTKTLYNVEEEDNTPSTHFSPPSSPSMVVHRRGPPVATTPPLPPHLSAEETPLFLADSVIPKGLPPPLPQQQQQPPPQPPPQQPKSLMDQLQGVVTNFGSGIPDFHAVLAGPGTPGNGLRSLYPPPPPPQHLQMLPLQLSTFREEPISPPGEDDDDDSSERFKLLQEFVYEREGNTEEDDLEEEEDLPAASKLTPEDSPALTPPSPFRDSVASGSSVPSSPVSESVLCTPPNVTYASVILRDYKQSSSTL
# UniProt Q14BI2, residues 19-872: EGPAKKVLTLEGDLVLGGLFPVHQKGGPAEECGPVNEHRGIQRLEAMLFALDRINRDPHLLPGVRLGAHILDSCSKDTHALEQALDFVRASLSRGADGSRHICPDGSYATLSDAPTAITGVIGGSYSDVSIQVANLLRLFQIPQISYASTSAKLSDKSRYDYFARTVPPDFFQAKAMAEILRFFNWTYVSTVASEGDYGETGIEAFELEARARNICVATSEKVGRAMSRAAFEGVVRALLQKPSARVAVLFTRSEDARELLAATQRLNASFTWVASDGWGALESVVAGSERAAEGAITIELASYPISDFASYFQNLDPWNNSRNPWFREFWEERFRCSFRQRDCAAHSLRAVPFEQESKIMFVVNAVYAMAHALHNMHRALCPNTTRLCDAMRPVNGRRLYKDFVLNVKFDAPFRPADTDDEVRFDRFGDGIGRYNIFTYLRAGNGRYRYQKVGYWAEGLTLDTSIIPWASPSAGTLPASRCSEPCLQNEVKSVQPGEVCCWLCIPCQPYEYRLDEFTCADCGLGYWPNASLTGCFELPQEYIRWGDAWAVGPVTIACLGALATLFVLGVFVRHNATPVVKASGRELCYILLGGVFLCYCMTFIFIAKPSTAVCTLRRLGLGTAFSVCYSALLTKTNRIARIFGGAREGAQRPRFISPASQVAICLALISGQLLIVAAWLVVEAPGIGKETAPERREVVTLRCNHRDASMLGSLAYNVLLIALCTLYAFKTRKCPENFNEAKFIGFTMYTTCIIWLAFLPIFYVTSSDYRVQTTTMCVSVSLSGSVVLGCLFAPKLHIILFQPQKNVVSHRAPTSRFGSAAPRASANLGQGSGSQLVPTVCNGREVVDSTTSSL
# UniProt Q9QYS2, residues 23-879: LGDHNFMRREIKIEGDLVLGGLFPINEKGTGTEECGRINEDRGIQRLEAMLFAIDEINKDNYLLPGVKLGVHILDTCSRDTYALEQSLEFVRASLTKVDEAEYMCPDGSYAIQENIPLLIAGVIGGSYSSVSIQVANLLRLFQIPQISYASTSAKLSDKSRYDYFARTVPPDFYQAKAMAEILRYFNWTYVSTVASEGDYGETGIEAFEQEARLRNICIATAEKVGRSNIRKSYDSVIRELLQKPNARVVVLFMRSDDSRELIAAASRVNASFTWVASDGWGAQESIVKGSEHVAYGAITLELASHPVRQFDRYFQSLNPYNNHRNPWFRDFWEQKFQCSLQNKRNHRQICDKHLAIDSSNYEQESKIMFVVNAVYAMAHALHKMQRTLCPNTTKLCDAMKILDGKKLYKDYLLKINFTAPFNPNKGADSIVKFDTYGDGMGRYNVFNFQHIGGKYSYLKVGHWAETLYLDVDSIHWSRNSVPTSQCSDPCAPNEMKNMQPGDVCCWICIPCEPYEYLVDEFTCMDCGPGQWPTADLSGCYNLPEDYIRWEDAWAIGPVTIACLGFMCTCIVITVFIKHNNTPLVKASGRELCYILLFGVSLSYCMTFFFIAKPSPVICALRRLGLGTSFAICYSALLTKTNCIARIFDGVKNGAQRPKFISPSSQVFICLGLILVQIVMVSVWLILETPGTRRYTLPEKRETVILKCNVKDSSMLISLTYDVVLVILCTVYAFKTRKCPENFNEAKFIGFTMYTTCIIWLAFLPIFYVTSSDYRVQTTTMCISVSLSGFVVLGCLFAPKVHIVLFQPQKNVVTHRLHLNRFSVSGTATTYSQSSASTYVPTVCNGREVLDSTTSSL
# UniProt Q3UVX5, residues 19-1203: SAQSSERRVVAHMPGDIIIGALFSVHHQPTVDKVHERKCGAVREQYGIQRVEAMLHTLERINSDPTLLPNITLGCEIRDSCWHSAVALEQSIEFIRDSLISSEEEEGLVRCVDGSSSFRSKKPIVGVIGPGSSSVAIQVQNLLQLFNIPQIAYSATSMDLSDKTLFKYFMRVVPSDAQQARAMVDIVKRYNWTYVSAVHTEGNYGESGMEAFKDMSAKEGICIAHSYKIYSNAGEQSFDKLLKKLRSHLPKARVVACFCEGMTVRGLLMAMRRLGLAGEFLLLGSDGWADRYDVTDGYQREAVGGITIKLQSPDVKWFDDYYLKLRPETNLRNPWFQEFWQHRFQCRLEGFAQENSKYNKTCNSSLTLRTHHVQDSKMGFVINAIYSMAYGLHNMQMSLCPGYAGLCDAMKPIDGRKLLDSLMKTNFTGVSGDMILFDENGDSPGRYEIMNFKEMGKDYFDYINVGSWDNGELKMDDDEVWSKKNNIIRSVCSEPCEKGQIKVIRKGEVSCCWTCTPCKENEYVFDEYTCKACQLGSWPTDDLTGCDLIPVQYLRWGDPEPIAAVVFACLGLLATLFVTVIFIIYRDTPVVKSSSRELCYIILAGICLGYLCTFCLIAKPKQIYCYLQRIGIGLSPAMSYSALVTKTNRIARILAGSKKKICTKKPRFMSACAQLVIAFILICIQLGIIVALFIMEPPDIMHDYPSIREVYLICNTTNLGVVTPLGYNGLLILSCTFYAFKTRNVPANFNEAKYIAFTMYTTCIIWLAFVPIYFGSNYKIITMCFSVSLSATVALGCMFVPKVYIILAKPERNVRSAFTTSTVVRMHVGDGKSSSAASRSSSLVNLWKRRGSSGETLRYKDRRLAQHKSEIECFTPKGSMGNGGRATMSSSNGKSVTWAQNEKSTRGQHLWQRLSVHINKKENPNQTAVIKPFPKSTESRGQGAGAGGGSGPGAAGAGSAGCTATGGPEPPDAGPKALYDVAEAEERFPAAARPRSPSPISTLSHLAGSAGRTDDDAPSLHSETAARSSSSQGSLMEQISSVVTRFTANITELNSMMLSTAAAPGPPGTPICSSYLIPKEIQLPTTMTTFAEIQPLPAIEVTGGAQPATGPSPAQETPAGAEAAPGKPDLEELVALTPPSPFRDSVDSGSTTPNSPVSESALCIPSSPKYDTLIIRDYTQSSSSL
# UniProt Q5NCH9, residues 24-871: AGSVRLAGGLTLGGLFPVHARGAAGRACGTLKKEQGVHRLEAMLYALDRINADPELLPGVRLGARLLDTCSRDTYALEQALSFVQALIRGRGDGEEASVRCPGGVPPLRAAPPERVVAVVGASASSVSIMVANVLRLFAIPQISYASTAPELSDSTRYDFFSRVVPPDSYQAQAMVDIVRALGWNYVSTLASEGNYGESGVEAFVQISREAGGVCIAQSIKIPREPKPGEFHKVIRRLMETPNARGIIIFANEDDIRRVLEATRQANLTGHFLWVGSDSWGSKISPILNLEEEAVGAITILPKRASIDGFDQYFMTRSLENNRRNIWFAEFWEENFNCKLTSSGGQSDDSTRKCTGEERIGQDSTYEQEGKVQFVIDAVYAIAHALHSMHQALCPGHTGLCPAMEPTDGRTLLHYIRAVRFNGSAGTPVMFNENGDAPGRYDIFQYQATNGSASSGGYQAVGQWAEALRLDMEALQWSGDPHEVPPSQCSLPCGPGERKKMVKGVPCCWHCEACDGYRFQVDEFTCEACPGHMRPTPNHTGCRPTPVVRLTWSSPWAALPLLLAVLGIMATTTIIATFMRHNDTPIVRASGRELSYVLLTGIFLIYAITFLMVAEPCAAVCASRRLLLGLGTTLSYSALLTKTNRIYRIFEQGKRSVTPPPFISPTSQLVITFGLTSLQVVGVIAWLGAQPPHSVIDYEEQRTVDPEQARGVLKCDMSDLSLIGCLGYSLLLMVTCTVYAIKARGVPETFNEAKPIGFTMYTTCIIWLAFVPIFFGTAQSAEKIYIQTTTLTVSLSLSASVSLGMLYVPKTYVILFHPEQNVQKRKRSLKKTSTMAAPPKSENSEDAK
# These are yes or no findings as the source states them, for the method shown. In cells and extracts the contact can be indirect. Some binding calls cover weakened binding; strength is not graded here.
# Assays:
# [1] = molecular target: metabotropic glutamate receptor 1 (mGluR1) (mouse (endogenous in brain)) (UniProt P97772); assay: co-IP
# [2] = molecular target: cellular prion protein PrP^C (wild type, endogenous) (mouse (endogenous in C57BL/6J brain)) (UniProt P04925); assay: co-IP
Substance,binding [1],binding [2]
"cellular prion protein PrP^C (wild type, endogenous) (from UniProt P04925 23-230)",binds,–
metabotropic glutamate receptor 1 (mGluR1) (from UniProt P97772 21-1199),–,binds
metabotropic glutamate receptor 2 (of mGluR2/3) (from UniProt Q14BI2 19-872),–,no binding
metabotropic glutamate receptor 3 (of mGluR2/3) (from UniProt Q9QYS2 23-879),–,no binding
metabotropic glutamate receptor 5 (mGluR5) (from UniProt Q3UVX5 19-1203),–,binds
metabotropic glutamate receptor 6 (mGluR6) (from UniProt Q5NCH9 24-871),–,no binding
